Data published in paper PMC12136788.
The other results are listed elsewhere or left out.

B1: ENSG00000124766:be:win_3401|3pUTR|ENSG00000124766|bound_else_gene|NA|bound_elsewhere_windowed (ssRNA)
RNA: GGGAGUUCUACAGUCCGACGAUCCUGUAAGCUUUUAAGAAAAACAAAGUUUUAAACGAAAUACUGCUCUGUCCAGAGGCUUUAAAACUGGUGCAAUUACAGCAAAAAGGGAUUCUGUAGCUUUAACUUGUAAACCACAUCUUUCAACAGAGGAUUGAGCAUCA
B2: chr15:97973610:97973711:+|3pUTR|ENSG00000140450|unk|FALSE|unique (ssRNA)
RNA: GGGAGUUCUACAGUCCGACGAUCGGUGCACAAAAUCCUUCUGUGGGCAAAACUUUGUUUUUGUUUUGCACAGUAAGAAACAAUAGGCAAGCGUUAUGUUUUUGGUAAGUUAACUAUGAAAGCUUUCUUAUUUUUAUUAUUAAACAACAGAGGAUUGAGCAUCA
B3: chr16:58973:59127:-|CDS|ENSG00000007384|control|control|control (ssRNA)
RNA: GGGAGUUCUACAGUCCGACGAUCCAUCUGCUUCCAGAUGACUGUCCUGCGGGACCUGGAGAAGCUGGCAGGCUGGCACCGCAUAGCCAUCAUCUACCUGCUGAGUGGUGUCACCGGCAACCUGGCCAGUGCCAUCUUCCUGCCCAACAGAGGAUUGAGCAUCA
B4: chr2:121339258:121339359:-|3pUTR|ENSG00000074054|unk|FALSE|unique (ssRNA)
RNA: GGGAGUUCUACAGUCCGACGAUCUUUUGAGAUUAAUUCUAAUAACGUAUUUGCUAUUGCAGUGCAGAGCCCACUGCAACUGCUAGGACUGAAAGCAGAGGCUGGGUGCCAGAGCACGUGAUUCUUAACAUCAUUUCCACAGACCAACAGAGGAUUGAGCAUCA
B5: chr5:178185721:178187299:-|CDS|ENSG00000244234|control|control|control (ssRNA)
RNA: GGGAGUUCUACAGUCCGACGAUCAGCAUAGCAUUUAGAUUACGCUUGGCUUCUUUUGAUAGUAGUGGAAAACUAGUAUGUAGUAGAACAACUGGCUAUCAAAUACUUAUACUUAAAAAGGAUCAGGAACAAGUGGUGAUGAACCAACAGAGGAUUGAGCAUCA
B6: chr1:33300114:33300153:+|3pUTR|ENSG00000160094|msi1_unk|total|mutant (ssRNA)
RNA: GGGAGUUCUACAGUCCGACGAUCCCCUGCCCCCAGCCCCCACAGACACACCCCAAUCUGAAAGCCAUGCGUGUCGGUGUAUACCGGAACCAUGUACAGAGCCCAGAGAAGCCCCCUACAUCCCCCCGGGAAAAAAAAGAAAACCAACAGAGGAUUGAGCAUCA
B7: ENSG00000130764:stop:overlap|stop_codon|ENSG00000130764|stop_codon|NA|stop_codon (ssRNA)
RNA: GGGAGUUCUACAGUCCGACGAUCCAGGGUACAAAGAAAGCAUUCUCUUUCCAAAGGAGACGUUGUGGAACCAGUCUGUCAUCUAGAUGGCCCUGACGUGAGGGAAGUGGAAGGUGUUAGGAGCGGAGAUACCUUCACUUGCUGCAACAGAGGAUUGAGCAUCA
B8: chr9:35074926:35075082:-|three_prime_utr|ENSG00000221829|control|control|control (ssRNA)
RNA: GGGAGUUCUACAGUCCGACGAUCUGUGAGCAGGGAUGUAAGUCAGAUGCGGCACUGCAGCAGCUUCGGGCAGCCGCCCUAAUUAGUCGUGGACUGGAAUGGGUAGCCAGCGGCCAGGAUACCAAAGCCUUACAGGACUUCCUCCAACAGAGGAUUGAGCAUCA
B9: chr5:151662667:151662729:-|3pUTR|ENSG00000113140|msi1_unk|FALSE|overlapping (ssRNA)
RNA: GGGAGUUCUACAGUCCGACGAUCGCCAGGCUGUUUCAGCCAGGAAGGCCAAAAUCAAGAGUGAGAUGUAGAAAGUUGUAAAAUAGAAAAAGUGGAGUUGGUGAAUCGGUUGUUCUUUCCUCACAUUUGGAUGAUUGUCAUAAGCAACAGAGGAUUGAGCAUCA
B10: chr1:145912163:145912566:-|CDS|ENSG00000131779|control|control|control (ssRNA)
RNA: GGGAGUUCUACAGUCCGACGAUCCCCACUUCUGCUAGACGUGGUCAGAAAUGCCUGUGAUCUCUUCAUUCCUCUGGACAAACUAGGCCUCUGGCGCUGUGGCCCUGGGAUUGUGGGGCUUUGUGGCCUCGUGUCCUCCAUCCUCAACAGAGGAUUGAGCAUCA
B11: chrX:133301433:133301604:-|3pUTR|ENSG00000076716|msi1|total|mutant (ssRNA)
RNA: GGGAGUUCUACAGUCCGACGAUCUUGUUUUUCUUGGGGGAUGGGGUGGGGUGGGAGCCGGCCGAGCUGAGAAUACUACAUCUCCGUGGUGACCUUCCGCCACGUGGGUGAAGUGGCAAAGGCCAUGGCCAUAUCUGUUGUCCCCAACAGAGGAUUGAGCAUCA
B12: chr7:21908192:21908293:-|CDS|ENSG00000164649|msi1|FALSE|unique (ssRNA)
RNA: GGGAGUUCUACAGUCCGACGAUCUUUUCUAGCGCACGCUUACAGAAUGAGAAAAAAACAAUUCUUGAAAGAAAGAAAGACUGUAGACAGGUGAUACAAAGGGAAGAUUCUACCUCUGAGUCUGAGGAUGACUCUCGGGAUGAGCAACAGAGGAUUGAGCAUCA
B13: ENSG00000124766:be:win_1301|CDS|ENSG00000124766|bound_else_gene|NA|bound_elsewhere_windowed (ssRNA)
RNA: GGGAGUUCUACAGUCCGACGAUCUUAACUUCGAGCCCGGCUCCGGCUCGCACUUCGAGUUCCCGGACUACUGCACGCCCGAGGUGAGCGAGAUGAUCUCGGGAGACUGGCUCGAGUCCAGCAUCUCCAACCUGGUUUUCACCUCAACAGAGGAUUGAGCAUCA
B14: chr5:113014749:113014850:+|3pUTR|ENSG00000172795|msi1|total|mutant (ssRNA)
RNA: GGGAGUUCUACAGUCCGACGAUCUAAAAAUCCUUUUUUACAGUGGUAUCCACAAAAUACUUCUCUGCUUAUAAAUGUUAUUGCCGAAAUCUUUAUUCUGUGCCGGCCGCCUAUUUAAUUGGGUUCCACUGAACCUCAUGGGACCAACAGAGGAUUGAGCAUCA
B15: chr17:42842016:42842117:+|3pUTR|ENSG00000131467|msi1|FALSE|unique (ssRNA)
RNA: GGGAGUUCUACAGUCCGACGAUCUUACUGUUUCUUUCCUCUGUGGGGCAUUGGAUCCUCCCACAGUUGCCCUGGUGAUGACUUAGGGCUUCCCAUCUGUGUACAUCCCACUUUGAAUCUUGAUCGUGACAAGAAAUACCUUAGCAACAGAGGAUUGAGCAUCA
B16: ENSG00000070961:be:win_4301|3pUTR|ENSG00000070961|bound_else_gene|NA|bound_elsewhere_windowed (ssRNA)
RNA: GGGAGUUCUACAGUCCGACGAUCGCUAAUACUAAUAGCCAAAUAGAUAACACUAAUGCUUUGUUUAAAAAAACGAAAAAAACAAAACAAAACAAAAAAACAUGAGCAGUGGUGUUCUAAUGAAGUUAUGACAUCUGUCCUAAUCAACAGAGGAUUGAGCAUCA
B17: chr10:22535117:22535218:-|3pUTR|ENSG00000150867|unk|total|mutant (ssRNA)
RNA: GGGAGUUCUACAGUCCGACGAUCAAGGUACACAUACAUUAUUUGAGUAACUGUUUCCUUGGGGGCCAAUCUGUGUAUGCUUUCCGAAGUUUACAGAAUGCUUUUAUUUUUGUCUAUAACAAACAGUCUGUCAUUUAUUUCUGUCAACAGAGGAUUGAGCAUCA
B18: chr3:149084675:149084859:-|CDS|ENSG00000071794|unk|FALSE|unique (ssRNA)
RNA: GGGAGUUCUACAGUCCGACGAUCCCAACUUUCUUUCCACGUUUUGAAUUCCAAGAUGUUAUCCCUCCAGAUGACUUUCUAACUAGUGAUGAAGAAGUAGAUUCCGUUUUAUUUGGAAGUUUGAGAGGUCAUGUGGUUGGACUACAACAGAGGAUUGAGCAUCA
B19: chr1:93180074:93180188:-|CDS|ENSG00000117500|unk|FALSE|bound_elsewhere (ssRNA)
RNA: GGGAGUUCUACAGUCCGACGAUCCUGGCCGCUCUGCCUCCGGUGCUGCUGCCUGGGGCGGCCGGCUUCACACCUUCCCUCGAUAGCGACUUCACCUUUACCCUUCCCGCCGGCCAGAAGGAGUGCUUCUACCAGCCCAUGCCCCAACAGAGGAUUGAGCAUCA
B20: ENSG00000092929:stop:overlap|stop_codon|ENSG00000092929|stop_codon|NA|stop_codon (ssRNA)
RNA: GGGAGUUCUACAGUCCGACGAUCUGAGGCUGCGGCGGCACCGGGCCAAGCAGGCCUCCCAGCAUGCCUUGCGGCCGGCACCGUAGCCGUAGAGGUUUGCGGUGGGGCUGGGUCCCCGGUGGGGACUUGCAAGGGCUUUCCUGUCAACAGAGGAUUGAGCAUCA
B21: chr3:48467913:48467962:-|3pUTR|ENSG00000164054|msi1_unk|FALSE|overlapping (ssRNA)
RNA: GGGAGUUCUACAGUCCGACGAUCCCCAGACAUGAAUACCUCGUGUUCCUCCUCCCUCUAUUACUGUUUCACCAGAGCUGUCUUAGCUCAAAUCUGUUGUGUUUCUGAGUCUAGGGUCUGUACACUUGUUUAUAAUAAAUGCAACAACAGAGGAUUGAGCAUCA
B22: chr14:103519669:103519777:-|3pUTR|ENSG00000166165|unk|total|mutant (ssRNA)
RNA: GGGAGUUCUACAGUCCGACGAUCCUGAUGUUCGCCGUCUGGCGAGCCCUCCGCCUUGCUGCCGAGACUUCCGUCACCCUUGGCCGAGUUUAUUUUUUUGAUGGCUAAGAUACUGCUGAUGCUGAAAUAAACCCGGGUUUUGGCCAACAGAGGAUUGAGCAUCA

What follows are binders tested against MSI1 full-length (mouse, UniProt Q61474 1-362) (assay: nsRBNS (natural sequence RNA bind-n-seq); RBNS binding buffer (assumed for nsRBNS): 25 mM Tris pH 7.5, 150 mM KCl, 3 mM MgCl2, 0.01% Triton X-100, 500 ug/ml BSA, 20 U/ml SUPERase-In, 4 C; UNK is unkempt and MSI1 is Musashi-1; names of the RNAs are library labels; protein concentration not given here; high values mean tight binding).
Chain of UniProt Q61474 (Q61474 whole entry): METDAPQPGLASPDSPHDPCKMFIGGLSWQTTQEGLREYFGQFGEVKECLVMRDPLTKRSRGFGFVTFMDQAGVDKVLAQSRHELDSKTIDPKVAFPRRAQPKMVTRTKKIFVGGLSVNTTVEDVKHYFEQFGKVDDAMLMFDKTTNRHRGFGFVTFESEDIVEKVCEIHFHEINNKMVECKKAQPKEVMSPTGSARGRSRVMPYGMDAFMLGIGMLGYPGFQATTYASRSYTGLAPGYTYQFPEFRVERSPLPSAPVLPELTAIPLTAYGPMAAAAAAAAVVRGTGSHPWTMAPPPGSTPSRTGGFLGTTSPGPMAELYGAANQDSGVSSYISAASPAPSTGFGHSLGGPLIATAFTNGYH

In order of rising binding signal:
1. B13  0.254 enrichment R
2. B3  0.272 enrichment R
3. B22  0.303 enrichment R
4. B10  0.376 enrichment R
5. B15  0.379 enrichment R
6. B14  0.389 enrichment R
7. B7  0.435 enrichment R
8. B17  0.455 enrichment R
9. B12  0.465 enrichment R
10. B1  0.473 enrichment R
11. B8  0.504 enrichment R
12. B21  0.551 enrichment R
13. B20  0.555 enrichment R
14. B4  0.654 enrichment R
15. B6  0.665 enrichment R
16. B19  0.678 enrichment R
17. B11  1.23 enrichment R
18. B2  1.29 enrichment R
19. B16  1.4 enrichment R
20. B18  2.56 enrichment R
21. B9  4.51 enrichment R
22. B5  12.7 enrichment R
